Data taken from PMC4336329 (PLoS ONE, 2015).
The whole screen tested about 310,000 compounds, of which about 14,000 (4.5%) showed an effect of 50% or more. Effects have a minus sign here. This is one part of the list.

target: human ether-à-go-go-related gene (hERG) potassium channel (human, UniProt Q12809); test: primary screen, population patch clamp on CHO cells stably expressing hERG
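Also: peak tail current of the secondary pulse compared with the same well before compound.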

human ether-à-go-go-related gene (hERG) potassium channel, sequence (Q12809 whole entry, looked up): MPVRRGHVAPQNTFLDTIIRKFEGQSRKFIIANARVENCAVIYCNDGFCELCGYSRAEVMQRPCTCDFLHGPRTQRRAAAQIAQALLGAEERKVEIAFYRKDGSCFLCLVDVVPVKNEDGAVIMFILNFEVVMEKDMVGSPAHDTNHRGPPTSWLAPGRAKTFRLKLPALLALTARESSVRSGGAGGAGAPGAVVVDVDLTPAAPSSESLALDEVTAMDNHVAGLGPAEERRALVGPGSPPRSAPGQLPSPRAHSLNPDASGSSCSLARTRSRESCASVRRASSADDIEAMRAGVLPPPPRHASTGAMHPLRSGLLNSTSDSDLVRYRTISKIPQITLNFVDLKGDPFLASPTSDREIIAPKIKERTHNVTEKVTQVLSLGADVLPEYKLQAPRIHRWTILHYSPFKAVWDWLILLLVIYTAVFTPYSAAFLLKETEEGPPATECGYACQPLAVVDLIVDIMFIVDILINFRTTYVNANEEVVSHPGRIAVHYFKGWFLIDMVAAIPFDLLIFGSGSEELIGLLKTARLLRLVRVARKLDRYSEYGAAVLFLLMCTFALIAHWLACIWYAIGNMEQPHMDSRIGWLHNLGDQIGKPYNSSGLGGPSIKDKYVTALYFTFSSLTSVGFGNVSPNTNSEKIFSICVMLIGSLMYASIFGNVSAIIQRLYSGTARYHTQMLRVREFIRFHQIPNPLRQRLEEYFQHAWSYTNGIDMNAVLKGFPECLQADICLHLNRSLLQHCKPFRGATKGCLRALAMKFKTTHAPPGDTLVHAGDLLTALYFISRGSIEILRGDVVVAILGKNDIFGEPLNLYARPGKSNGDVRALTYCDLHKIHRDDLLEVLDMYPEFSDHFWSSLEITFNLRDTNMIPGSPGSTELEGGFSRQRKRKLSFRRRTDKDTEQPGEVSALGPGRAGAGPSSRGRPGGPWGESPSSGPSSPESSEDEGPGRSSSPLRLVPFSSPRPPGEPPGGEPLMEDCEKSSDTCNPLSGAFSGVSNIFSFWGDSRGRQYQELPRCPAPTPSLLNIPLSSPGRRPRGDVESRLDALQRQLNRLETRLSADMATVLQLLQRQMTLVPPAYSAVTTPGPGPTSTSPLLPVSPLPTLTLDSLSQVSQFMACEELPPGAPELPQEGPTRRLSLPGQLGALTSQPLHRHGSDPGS

| SMILES | hERG current change (%, negative = inhibition) at 10uM [%] |
| --- | --- |
| CCOC(=O)Cc1c(C)nc2c(-c3ccc(Cl)cc3)c[nH]n2c1=O | -8.34 |
| COc1ccc(NC(=O)C2CCCCN2N)cc1OC (stereo not drawn) | 10.3 |
| N#C/C(=C\C=C\c1ccccc1[N+](=O)[O-])C(=O)NC1CCCCC1 | 0.177 |
| COc1cccc(-c2c(C(=O)N/N=C/c3ccsc3)nnn2-c2nonc2N)c1 | 10.6 |
| C/C(Cn1nc([N+](=O)[O-])cc1C)=N\NC(=O)COc1ccccc1[N+](=O)[O-] | -17.4 |
| CC(=O)Nc1ccc(S(=O)(=O)Nc2nc(-c3ccc(C(C)(C)C)cc3)cs2)cc1 | 9.64 |
| O=C(NCCc1ccccc1)C1CCN(S(=O)(=O)c2cccnc2)CC1 | 12.9 |
| CC(C)CN(C(=O)CCNC(=O)c1ccc(Cl)cc1)c1c(N)n(CC(C)C)c(=O)[nH]c1=O | -5.09 |
| O=C(COC(=O)/C=C/c1ccccc1Cl)NC(=O)NCc1ccccc1 | 9.4 |
| CCn1c(CNc2ccc(F)cc2)nnc1SCC(=O)OC1CCCCC1 | -51.7 |
| CC1(C)CC(=O)C=C(Nc2ccc(O)c(C(=O)O)c2)C1 | 18.1 |
| CCn1c(SCC(=O)Nc2cc(S(=O)(=O)N3CCOCC3)ccc2OC)nnc1-c1ccncc1 | 13.8 |
| N/C(CC(=O)Nc1cc(C(F)(F)F)ccc1Cl)=N\O | 1.64 |
| CCc1c(C)c2ccc(OC(C)C(=O)NC(Cc3c[nH]c4ccc(O)cc34)C(=O)O)c(C)c2oc1=O (stereo not drawn) | 6.81 |
| CCCOc1ccc(N2C(=O)CC(N3CCN(c4nc5ccccc5s4)CC3)C2=O)cc1 (stereo not drawn) | 8.46 |
| CCC(=O)Nc1nc2ccc(S(C)(=O)=O)cc2s1 | -1.04 |
| O=c1c2ccccc2nc(CN2CCOCC2)n1-c1ccccc1F | 6.4 |
| O=C(CC(c1ccccc1)c1cc(Br)ccc1O)N1CCCCC1 (stereo not drawn) | -10.8 |
| Cc1ccc2[nH]c(=O)c(CN(CC3CCCO3)C(=S)Nc3ccccc3)cc2c1 (stereo not drawn) | -8.2 |
| CCCCC(=O)N1C/C=C\[C@H](c2ccc(OC)cc2)N(Cc2ccc(F)cc2)C(=O)[C@@H]1C | -68.6 |
| CC1CCCCN1C(=O)COC(=O)C1CCN(S(=O)(=O)c2c(Cl)cccc2Cl)CC1 (stereo not drawn) | -56.4 |

| SMILES | hERG current change (%, negative = inhibition) at 10uM [%] |
| --- | --- |
| C=CCOc1cccc(C2c3c(oc4ccccc4c3=O)C(=O)N2c2ccccn2)c1 (stereo not drawn) | -0.00012 |
| O=C(CNS(=O)(=O)c1cccc2nsnc12)NCCc1ccccc1 | 3.2 |
| O=C(NNC(=S)NCc1ccc(Cl)cc1)c1cccnc1 | 14.4 |
| Cc1cc(C)c(C(=O)N2CCCC(Nc3ccc(F)cc3)C2)o1 (stereo not drawn) | 9.39 |
| CCc1c(C)sc(NC(=O)/C=C/C(=O)O)c1C(N)=O | 36.5 |
| CC(C)CCNC(=O)c1cc(-c2ccncc2)nc2ccc(S(=O)(=O)N3CCOCC3)cc12 | -2.03 |
| Cc1c(C)c2c(OCC(=O)N3CCC(C(=O)O)CC3)cc3c(c2oc1=O)CCC(C)(C)O3 | 3.54 |
| COc1cccc(NC(=O)CN(C)S(=O)(=O)c2ccc3c(c2)n(C)c(=O)c(=O)n3C)c1 | 8.84 |
| O=C(c1ccc(Br)o1)N1N=C(c2ccc(Cl)cc2)CC1c1ccco1 (stereo not drawn) | -3.81 |
| COc1ccc(/C=C/C(=O)NCC(=O)N/N=C(\C)Cc2ccccc2)cc1 | 10.2 |
| Cc1cccc(OCC(=O)NCC(C)(C)N2CCOCC2)c1 | -3.06 |
| COc1cc(CNCCN2CCOCC2)ccc1OCc1ccc(Cl)cc1.Cl | -42.1 |
| COC(=O)Cn1c(C(F)(F)F)nc2ccccc21 | 20.9 |
| O=C(CSc1nnc(-c2ccco2)n1-c1ccccc1)NCC1CCCO1 (stereo not drawn) | -10.1 |
| CN(C)C(CNC(=O)c1ccc(NS(=O)(=O)c2ccc(F)c(F)c2)cc1)c1ccccc1 (stereo not drawn) | -12.9 |
| O=C(COc1ccc(S(=O)(=O)N2CCCC2)cc1Cl)NCc1ccc2c(c1)OCO2 | -0.178 |
| CC(=O)N1CCN(C(=O)CSc2cc(C)c(Br)cc2C)CC1 | 3.18 |
| CCN(Cc1ccncc1)Cc1ccc(OC)c(OC)c1.O=C(O)C(=O)O | -6.49 |
| O=C(O)c1ccc(COc2ccccc2/C=C2\NC(=O)N(Cc3ccccc3)C2=O)cc1 | 24.5 |
| Cc1cc2nc(C)n(CCCNC(=O)Nc3ccc(C#N)cc3)c2cc1C | -34 |
| CCCCN(C)CCCNC(=O)c1ccc(N2CCCC2=O)cc1 | 9.92 |
